Laboratory results from patent publication US20220064294A1 (ARCUS BIOSCIENCES, published 2022).

T1: human TIGIT, full length, on cells (human, UniProt Q495A1 22-244)
T1 construct: also called hTIGIT; hTIGIT-CHO
T1 sequence: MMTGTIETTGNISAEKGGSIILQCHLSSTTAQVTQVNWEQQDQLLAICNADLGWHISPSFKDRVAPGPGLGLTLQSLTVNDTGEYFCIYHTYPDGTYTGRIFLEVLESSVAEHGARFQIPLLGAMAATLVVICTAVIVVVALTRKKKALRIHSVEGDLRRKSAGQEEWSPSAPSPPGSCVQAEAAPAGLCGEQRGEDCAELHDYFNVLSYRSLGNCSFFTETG

T2: hTIGIT-His (human)
T2 construct: also called His-tagged human TIGIT protein extracellular domain; soluble hTIGIT-His
T2 chain: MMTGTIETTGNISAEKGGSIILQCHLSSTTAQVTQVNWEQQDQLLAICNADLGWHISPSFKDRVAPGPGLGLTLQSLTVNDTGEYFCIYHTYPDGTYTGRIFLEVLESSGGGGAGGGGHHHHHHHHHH

T3: cTIGIT-His (cynomolgus monkey)
T3 construct: also called His-tagged cyno TIGIT protein extracellular domain; soluble cTIGIT-His
T3 chain: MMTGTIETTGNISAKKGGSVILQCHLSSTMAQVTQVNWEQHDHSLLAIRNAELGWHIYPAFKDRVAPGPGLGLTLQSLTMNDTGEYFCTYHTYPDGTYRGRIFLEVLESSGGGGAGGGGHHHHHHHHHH


Key:
[1] = biological target: T1, human TIGIT, full length, on cells; assay: flow cytometry, endogenous TIGIT on isolated not-activated human CD8+ T cells
Method: (§1) Binding of antibodies Hu24F8.1-IgG1.AA and Hu24F8.2-IgG1.AA to TIGIT expressed on cell surface was examined by flow cytometry. Cells expressing TIGIT on cell surface were collected and incubated in 100 μL of HBSS Buffer in the presence (or absence) of various concentrations of antibody for 1 hr at 4° C. After washing with HBSS, antibody binding on cells was detected with 2 μg/mL of Alexa488-labeled goat anti-human IgG antibody (ThermoFisher Scientific, Cat #A-11013) for 30 min at 4° C. Cells were then washed and resuspended in PBS and subjected to flow cytometry using a Attune NxT flow cytometer (ThermoFisher Scientific, Waltham, Mass.). GeoMean of fluorescence intensity was obtained for the whole single cell population, and for transient transfection, non-transfected cells were used to gate for the positive binding cell population to obtain percent of positive cells. Data was calculated by GraphPad Prism using the standard 4-parameter curve fitting.
(§2) Binding of Hu24F8.2-IgG1.AA to isolated human CD8⁺ T cells was examined by flow cytometry. CD8⁺ T cells were isolated using the RosetteSep™ Human CD8⁺ T cell Enrichment Cocktail (Stemcell, Cat #15023) following manufacturer recommendation. Cells were then activated with anti-CD3/CD28 beads with 20U/mL rhIL-2 supplements for 7-9 days. […]

[2] = biological target: T1, human TIGIT, full length, on cells; assay: flow cytometry, endogenous TIGIT on human CD8+ T cells activated with anti-CD3/CD28 beads and rhIL-2
Method: as §1, §2

[3] = biological target: T1, human TIGIT, full length, on cells; assay: flow cytometry, inhibition of hCD155-Fc binding to CHO-hTIGIT cells
Method: The activity of Hu24F8.1-IgG1.AA and Hu24F8.2-IgG1.AA to block the interaction of TIGIT with CD155 was analyzed by flow cytometry using CHO cells stably overexpressing human TIGIT (CHO-hTIGIT) and human CD155-Fc fusion recombinant soluble protein (hCD155-Fc), as described in Example 1. […] The IC₅₀ for Hu24F8.1-IgG1.AA to block the TIGIT-CD155 interaction was 0.68 nM, and for Hu24F8.2-IgG1.AA it was 0.67 nM.

[4] = biological target: T2, hTIGIT-His; assay: SPR, Biacore T200, antibody captured on anti-human IgG chip, hTIGIT-His as analyte
Method: (§3) The purified, full-length antibodies Hu24F8.1-IgG1.AA (containing VH1+VL2) and Hu24F8.2-IgG1.AA (containing VH2+VL2), together with the full-length chimera antibody of 24F8 mouse VH+VL and human IgG1/kappa constant domains (Ch24F8), were analyzed by SPR using a Biacore T200 instrument with antibody capture using an anti-human IgG coated chip and soluble hTIGIT-His or cTIGIT-His as the analyte.

[5] = biological target: T3, cTIGIT-His; assay: SPR, Biacore T200, antibody captured on anti-human IgG chip, cTIGIT-His as analyte
Method: as §3

[6] = biological target: T1, human TIGIT, full length, on cells; assay: cell-based or functional assay
[7] = biological target: T2, hTIGIT-His; assay: SPR, ProteOn XPR36, antibody captured on anti-human IgG chip at six densities, hTIGIT-His as analyte, 25 C, global 1:1 fit
Method: (§4) Hu24F8.2-IgG1 was analyzed by SPR using a BioRad ProteOn XPR36 instrument with antibody capture using an anti-human IgG coated chip or a Protein A coated chip at six different densities. The analyte was soluble hTIGIT-His (stock solution prepared at 33.3 μM) which was diluted to 33 nM as the highest concentration and tested in triplicate in a three-fold dilution series over Hu24F8.2-IgG1 surface. The running buffer contained 10 mM HEPES, 150 mM NaCl, 0.05% tween-20 and 0.2 mg/mL BSA. All data were collected at 25° C. Data from all six surface densities were globally fit to a 1:1 interaction model using a local Rmax.

[8] = biological target: T2, hTIGIT-His; assay: SPR, ProteOn XPR36, antibody captured on Protein A chip at six densities, hTIGIT-His as analyte, 25 C, global 1:1 fit
Method: as §4

Binder | EC50 [1] [nM] | EC50 [2] [nM] | IC50 [3] [nM] | Kd [4] [nM] | koff [4] [s⁻¹] | kon [4] [M⁻¹ s⁻¹] | Kd [5] [nM] | koff [5] [s⁻¹] | kon [5] [M⁻¹ s⁻¹] | EC50 of luciferase reporter activity, TIGIT/CD155 Blockade Bioassay (Jurkat cells overexpressing TIGIT with CD155 aAPC/CHO-K1 cells) [6] [nM] | Kd [7] [nM] | koff [7] [s⁻¹] | kon [7] [M⁻¹ s⁻¹] | Kd [8] [nM] | koff [8] [s⁻¹] | kon [8] [M⁻¹ s⁻¹]
Hu24F8.2-IgG1.AA (antibody, IgG1/kappa; also called Hu24F8.2 (VH2+VL2), IgG1/kappa with L234A/L235A) heavy: QVQLQESGPGLVKPSGTLSLTCAVSGYSITSGYSWHWVRQPPGKGLEWIGYVHYSGSTNYNPSLKSRVTISVDKSKNQFSLKLSSVTAADTAVYYCARMDYGNYGGAMDYWGQGTLVTVSS[human IgG1 constant region with changes not spelt out] light: EIVMTQSPATLSVSPGERATLSCKASQDVRTAVAWYQQKPGQAPRLLIYSASYRYTGIPARFSGSGSGTEFTLTISSLQSEDFAVYYCQQYYSTQWTFGGGTKVEIKRTVAAPSVFIFPPSDEQLKSGTASVVCLLNNFYPREAKVQWKVDNALQSGNSQESVTEQDSKDSTYSLSSTLTLSKADYEKHKVYACEVTHQGLSSPVTKSFNRGEC | 0.098 | 0.14 | 0.67 | 0.176 | 0.00014 | 796000 | 1.47 | 0.000997 | 679000 | 2.78 | – | – | – | – | – | –
Hu24F8.2-IgG1 (antibody, IgG1/kappa with wildtype IgG1 constant region; also called Hu24F8.2, wildtype IgG1 Fc) heavy: QVQLQESGPGLVKPSGTLSLTCAVSGYSITSGYSWHWVRQPPGKGLEWIGYVHYSGSTNYNPSLKSRVTISVDKSKNQFSLKLSSVTAADTAVYYCARMDYGNYGGAMDYWGQGTLVTVSS[human IgG1 constant region not spelt out] light: EIVMTQSPATLSVSPGERATLSCKASQDVRTAVAWYQQKPGQAPRLLIYSASYRYTGIPARFSGSGSGTEFTLTISSLQSEDFAVYYCQQYYSTQWTFGGGTKVEIKRTVAAPSVFIFPPSDEQLKSGTASVVCLLNNFYPREAKVQWKVDNALQSGNSQESVTEQDSKDSTYSLSSTLTLSKADYEKHKVYACEVTHQGLSSPVTKSFNRGEC | – | – | – | – | – | – | – | – | – | – | 0.0246 | 5.97e-05 | 2.42e+06 | 0.0377 | 6.31e-05 | 1.67e+06
